Reference: PMC9911399, “Two distinct binding modes provide the RNA-binding protein RbFox with extraordinary sequence specificity”
Residue numbers refer to the chain shown, from its start. The list shows a part of the results.

T1: RBFOX1 RRM (Homo sapiens, UniProt Q9NWB1 109-208)
T1 sequence: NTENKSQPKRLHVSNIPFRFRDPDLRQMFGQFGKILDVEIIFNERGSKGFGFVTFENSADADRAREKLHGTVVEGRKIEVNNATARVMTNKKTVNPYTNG

B1: UUAGACU (DNA:RNA)
RNA: GGGAGACCGGAAUUCAGAUUGUCCUUAGACUUUAAAUCCCGUCGUAGCCACCA
DNA 1: CAATCTGAATTCCGGTCTCCC
DNA 2: TGGTGGCTACGACGGGATT
B2: GAAUUAA (DNA:RNA)
RNA: B1 RNA with U25G, U26A, G28U, A29U, C30A, U31A
DNA 1: CAATCTGAATTCCGGTCTCCC
DNA 2: TGGTGGCTACGACGGGATT
B3: AAGGUAU (DNA:RNA)
RNA: B1 RNA with U25A, U26A, A27G, A29U, C30A
DNA 1: CAATCTGAATTCCGGTCTCCC
DNA 2: TGGTGGCTACGACGGGATT
B4: AGAGGAU (DNA:RNA)
RNA: B1 RNA with U25A, U26G, A29G, C30A
DNA 1: CAATCTGAATTCCGGTCTCCC
DNA 2: TGGTGGCTACGACGGGATT
B5: UGUAGAC (DNA:RNA)
RNA: B1 RNA with U26G, A27U, G28A, A29G, C30A, U31C
DNA 1: CAATCTGAATTCCGGTCTCCC
DNA 2: TGGTGGCTACGACGGGATT
B6: GGUAGAC (DNA:RNA)
RNA: GGGAGACCGGAAUUCAGAUUGUCCGGUAGACUUAAAUCCCGUCGUAGCCACCA
DNA 1: CAATCTGAATTCCGGTCTCCC
DNA 2: TGGTGGCTACGACGGGATT
B7: UCUGGUA (DNA:RNA)
RNA: B6 RNA with G25U, G26C, A28G, A30U, C31A
DNA 1: CAATCTGAATTCCGGTCTCCC
DNA 2: TGGTGGCTACGACGGGATT
B8: UUCCGAG (DNA:RNA)
RNA: B6 RNA with G25U, G26U, U27C, A28C, C31G
DNA 1: CAATCTGAATTCCGGTCTCCC
DNA 2: TGGTGGCTACGACGGGATT
B9: UUCACAU (DNA:RNA)
RNA: B1 RNA with A27C, G28A, A29C, C30A
DNA 1: CAATCTGAATTCCGGTCTCCC
DNA 2: TGGTGGCTACGACGGGATT
B10: CGCUCGU (DNA:RNA)
RNA: B6 RNA with G25C, U27C, A28U, G29C, A30G, C31U
DNA 1: CAATCTGAATTCCGGTCTCCC
DNA 2: TGGTGGCTACGACGGGATT
B11: UGUCAAU (DNA:RNA)
RNA: B6 RNA with G25U, A28C, G29A, C31U
DNA 1: CAATCTGAATTCCGGTCTCCC
DNA 2: TGGTGGCTACGACGGGATT
B12: CACGGCC (DNA:RNA)
RNA: B6 RNA with G25C, G26A, U27C, A28G, A30C
DNA 1: CAATCTGAATTCCGGTCTCCC
DNA 2: TGGTGGCTACGACGGGATT
B13: ACCUGUG (DNA:RNA)
RNA: B6 RNA with G25A, G26C, U27C, A28U, A30U, C31G
DNA 1: CAATCTGAATTCCGGTCTCCC
DNA 2: TGGTGGCTACGACGGGATT
B14: GUUGGCG (DNA:RNA)
RNA: B6 RNA with G26U, A28G, A30C, C31G
DNA 1: CAATCTGAATTCCGGTCTCCC
DNA 2: TGGTGGCTACGACGGGATT
B15: ACAGUAA (DNA:RNA)
RNA: B1 RNA with U25A, U26C, A29U, C30A, U31A
DNA 1: CAATCTGAATTCCGGTCTCCC
DNA 2: TGGTGGCTACGACGGGATT
B16: CUUUUGG (DNA:RNA)
RNA: B6 RNA with G25C, G26U, A28U, G29U, A30G, C31G
DNA 1: CAATCTGAATTCCGGTCTCCC
DNA 2: TGGTGGCTACGACGGGATT
B17: GACUGGU (DNA:RNA)
RNA: B6 RNA with G26A, U27C, A28U, A30G, C31U
DNA 1: CAATCTGAATTCCGGTCTCCC
DNA 2: TGGTGGCTACGACGGGATT
B18: UGCCACC (DNA:RNA)
RNA: B1 RNA with U26G, A27C, G28C, U31C
DNA 1: CAATCTGAATTCCGGTCTCCC
DNA 2: TGGTGGCTACGACGGGATT
B19: GUCCAUU (DNA:RNA)
RNA: B1 RNA with U25G, A27C, G28C, C30U
DNA 1: CAATCTGAATTCCGGTCTCCC
DNA 2: TGGTGGCTACGACGGGATT
B20: CGCUCCU (DNA:RNA)
RNA: B1 RNA with U25C, U26G, A27C, G28U, A29C
DNA 1: CAATCTGAATTCCGGTCTCCC
DNA 2: TGGTGGCTACGACGGGATT
B21: UUCCCGA (DNA:RNA)
RNA: B1 RNA with A27C, G28C, A29C, C30G, U31A
DNA 1: CAATCTGAATTCCGGTCTCCC
DNA 2: TGGTGGCTACGACGGGATT
B22: UUUUGGG (DNA:RNA)
RNA: B6 RNA with G25U, G26U, A28U, A30G, C31G
DNA 1: CAATCTGAATTCCGGTCTCCC
DNA 2: TGGTGGCTACGACGGGATT
B23: GACAUAC (DNA:RNA)
RNA: B6 RNA with G26A, U27C, G29U
DNA 1: CAATCTGAATTCCGGTCTCCC
DNA 2: TGGTGGCTACGACGGGATT
B24: CUACACU (DNA:RNA)
RNA: B1 RNA with U25C, G28C
DNA 1: CAATCTGAATTCCGGTCTCCC
DNA 2: TGGTGGCTACGACGGGATT
B25: GGAGUCG (DNA:RNA)
RNA: B1 RNA with U25G, U26G, A29U, U31G
DNA 1: CAATCTGAATTCCGGTCTCCC
DNA 2: TGGTGGCTACGACGGGATT
B26: GUAAGGA (DNA:RNA)
RNA: B6 RNA with G26U, U27A, A30G, C31A
DNA 1: CAATCTGAATTCCGGTCTCCC
DNA 2: TGGTGGCTACGACGGGATT
B27: UGAGUCC (DNA:RNA)
RNA: B1 RNA with U26G, A29U, U31C
DNA 1: CAATCTGAATTCCGGTCTCCC
DNA 2: TGGTGGCTACGACGGGATT
B28: UGCACAA (DNA:RNA)
RNA: B6 RNA with G25U, U27C, G29C, C31A
DNA 1: CAATCTGAATTCCGGTCTCCC
DNA 2: TGGTGGCTACGACGGGATT
B29: CACGGGU (DNA:RNA)
RNA: B1 RNA with U25C, U26A, A27C, A29G, C30G
DNA 1: CAATCTGAATTCCGGTCTCCC
DNA 2: TGGTGGCTACGACGGGATT
B30: AAGAGUG (DNA:RNA)
RNA: B6 RNA with G25A, G26A, U27G, A30U, C31G
DNA 1: CAATCTGAATTCCGGTCTCCC
DNA 2: TGGTGGCTACGACGGGATT
B31: ACGCACG (DNA:RNA)
RNA: B1 RNA with U25A, U26C, A27G, G28C, U31G
DNA 1: CAATCTGAATTCCGGTCTCCC
DNA 2: TGGTGGCTACGACGGGATT

biological target: T1, RBFOX1 RRM; assay: EMSA; HiTS-Eq, 1 nM pool, 10 min; buffer printed only for the single-RNA assays: 10 mM Tris pH 7.5, 150 mM NaCl, 3.4 mM EDTA, 0.001% NP-40, 30 C; conditions: tags: His6 N-terminal (pET28a); label: 5' 32P
Outline: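 Purified RbFox RRM, wild type or mutant, was incubated for 10 min in 50 µL with 1 nM of a 5′-radiolabelled RNA pool carrying 7 randomized nucleotides, whose flanks were annealed to DNA oligonucleotides, over a series of increasing protein concentrations. Unbound RNA was resolved on 8% native PAGE, cut out, reverse-transcribed, barcoded by PCR and sequenced on an Illumina HiSeq 2500. Relative association constants were derived from changes in read counts for each RNA species versus the control reaction and normalised to the cognate motif.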

| Binder | binding signal |
| --- | --- |
| B1 | 0.00666 KA relative to UGCAUGU |
| B2 | 0.0029 KA relative to UGCAUGU |
| B3 | 0.00559 KA relative to UGCAUGU |
| B4 | 0.00673 KA relative to UGCAUGU |
| B5 | 0.0133 KA relative to UGCAUGU |
| B6 | 0.0185 KA relative to UGCAUGU |
| B7 | 0.0181 KA relative to UGCAUGU |
| B8 | 0.00775 KA relative to UGCAUGU |
| B9 | 0.00205 KA relative to UGCAUGU |
| B10 | 0.0214 KA relative to UGCAUGU |
| B11 | 0.0109 KA relative to UGCAUGU |
| B12 | 0.00963 KA relative to UGCAUGU |
| B13 | 0.00788 KA relative to UGCAUGU |
| B14 | 0.0235 KA relative to UGCAUGU |
| B15 | 0.00125 KA relative to UGCAUGU |
| B16 | 0.0125 KA relative to UGCAUGU |

| Binder | binding signal |
| --- | --- |
| B17 | 0.0245 KA relative to UGCAUGU |
| B18 | 0.00621 KA relative to UGCAUGU |
| B19 | 0.00777 KA relative to UGCAUGU |
| B20 | 0.00956 KA relative to UGCAUGU |
| B21 | 0.0157 KA relative to UGCAUGU |
| B22 | 0.0026 KA relative to UGCAUGU |
| B23 | 0.00268 KA relative to UGCAUGU |
| B24 | 0.00154 KA relative to UGCAUGU |
| B25 | 0.0211 KA relative to UGCAUGU |
| B26 | 0.001 KA relative to UGCAUGU |
| B27 | 0.0156 KA relative to UGCAUGU |
| B28 | 0.00911 KA relative to UGCAUGU |
| B29 | 0.00452 KA relative to UGCAUGU |
| B30 | 0.00946 KA relative to UGCAUGU |
| B31 | 0.0314 KA relative to UGCAUGU |
